This passage reports activity change, negative = inhibition results from PubChem BioAssay AID1745853 (National Center for Advancing Translational Sciences (NCATS), 2022).

This is one part of the list. These are further read-outs of the screen, such as a control signal, another cell line or another target. No call is given for them.

Common to all, as to assay: Primary Screen for Target Class Profiling of Small Molecule Inhibitors of Methyltransferases
Assay [1] has as its target Glycine N-methyltransferase (Homo sapiens) (UniProt Q14749). The settings on record: purified enzyme, MTase-Glo SAH luminescence; measured here: GNMT inhibition; at 40 µM; stronger effect = lower value. In short, it runs like this: (§1)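 Each enzyme was assayed with SAM and its substrate. SAH formation detected by MTase-Glo luminescence; single-point 40 uM screen[…].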

Assay [2] has as its target Guanidinoacetate N-methyltransferase (Homo sapiens) (UniProt Q14353). The settings on record: purified enzyme, MTase-Glo SAH luminescence; measured here: GAMT inhibition; at 40 µM; stronger effect = lower value. In short, it runs like this: as §1
In assay [3] the target is Histamine N-methyltransferase (Homo sapiens) (UniProt P50135). The following applies: purified enzyme, MTase-Glo SAH luminescence; measured here: HNMT inhibition; at 40 µM; stronger effect = lower value. The essentials:
as §1

Assay [4] addresses Nicotinamide N-methyltransferase (Homo sapiens) (UniProt P40261). The settings on record: purified enzyme, MTase-Glo SAH luminescence; measured here: NNMT inhibition; at 40 µM; stronger effect = lower value. The essentials: as §1
Assay [5] concerns the target Phenylethanolamine N-methyltransferase (Homo sapiens) (UniProt P11086). The settings on record: purified enzyme, MTase-Glo SAH luminescence; measured here: PNMT inhibition; at 40 µM; stronger effect = lower value. The essentials:
as §1
On the % scale 0 is the no-effect control and ±100 the full control effect.

For `CC(C)OCCCn1c(=O)c2ccccc2n2c(-c3ccc(O)cc3)nnc12`, the activity change, negative = inhibition in assay [1] was -7.73%; in assay [2], 2.58%; in assay [3], -4.2%; in assay [4], 2.03%; in assay [5], -6.45%.
The corresponding values for `CN1CCN(CCN2C(=O)c3ccc(-c4ccco4)n3CC2(C)C(=O)NC2CCCC2)CC1` (stereo unspecified) are -0.225%, 3.23%, 1.38%, 7.41% and 0.251%.
For `CC(C)c1noc(N2CCC(COc3ccc(-c4ccc(S(C)(=O)=O)cc4)nc3)CC2)n1` the same measures were 3.01%, 2.87%, 11%, -16.3% and -3.48%.
For `CC(C)CCn1c(=O)c2ccccc2n2c(=O)n(CC(=O)NC3CCCCC3)nc12` the same measures were -2.37%, 2.44%, 2.65%, -14.5% and -1.93%.
In the case of `COc1ccc(C)cc1NC(=O)Cn1c(=O)oc2cc(S(=O)(=O)N3CCCCC3)ccc21`, the activity change, negative = inhibition was -2.02% in assay [1]; 0% in assay [2]; 3.41% in assay [3]; -5.06% in assay [4]; -1.93% in assay [5].
Turning to `Cc1ccc(CNC(=O)CSc2nnc3n(CCc4ccccc4)c(=O)c4ccccc4n23)cc1`, the activity change, negative = inhibition in assay [1] was determined as 7.04%; in assay [2], 0%; in assay [3], 12.2%; in assay [4], 0.743%; in assay [5], 4.75%.
On to `CNC(=O)c1cc[nH]c1C1CCCN(C(=O)CCc2nc3ccccc3s2)C1` (stereo unspecified), for which the activity change, negative = inhibition is -3.53% in assay [1]; -0.061% in assay [2]; -0.026% in assay [3]; -3.56% in assay [4]; 4.03% in assay [5].
For `CC(C)n1cnnc1CC1CCN(S(=O)(=O)Cc2ccccc2)C1` (stereo unspecified) the same measures were -0.264%, -0.622%, 1.99%, -8.29% and 12.7%.
The corresponding values for `CNC(=O)[C@@H]1CN(C(=O)c2n[nH]c3ccccc23)C[C@H]1COC` are -1.97%, 0.968%, 0.727%, -3.72% and -1.33%.
With `COCC(=O)N1CCc2cc(-c3csc(NC(=O)c4cc(OC)cc(OC)c4)n3)ccc21`, the activity change, negative = inhibition was 2.49% in assay [1]; 1.91% in assay [2]; 8.61% in assay [3]; -1.87% in assay [4]; 5.59% in assay [5].
`CC1(C)CC[C@]2(C(=O)O[C@@H]3O[C@H](CO)[C@@H](O)[C@H](O)[C@H]3O)[C@H](O)C[C@]3(C)C(=CCC4[C@@]5(C)CC[C@H](O[C@@H]6OC[C@@H](O)[C@H](O)[C@H]6O)[C@@](C)(C(=O)O)C5CC[C@]43C)[C@@H]2C1` (stereo partly specified): the activity change, negative = inhibition in assay [1] was 1.36%; in assay [2], 8.99%; in assay [3], 12%; in assay [4], -0.192%; in assay [5] it was 8.21%.
For `O=C1/C(=C/c2ccsc2)CC/C1=C\c1cccs1` the same measures were -15.3%, 7.79%, 4.7%, -6.41% and 4.47%.
The corresponding values for `Cc1ccc(Cn2c(=O)c3ccccc3n3c(=O)n(Cc4cccc(C)c4)nc23)cc1` are 4.31%, 0%, 4.54%, 1.85% and 2.34%.
For `COC(=O)[C@]1(Cc2ccc(O)c(CC=C(C)C)c2)OC(=O)C(O)=C1c1ccc(O)cc1` the same measures were -0.945%, 3.83%, 1.91%, -12.3% and 1.88%.
As for `O=C1CCc2cc(S(=O)(=O)Nc3ccc(F)c(Cl)c3)c(F)cc2N1`, the activity change, negative = inhibition was -11.8% in assay [2], -18.3% in assay [4] and -5.56% in assay [5].
With `CC(=O)O[C@@H]1CC(C)=C2[C@H]1[C@H](C)CC[C@H]2/C=C(\C)C(=O)O`, the activity change, negative = inhibition was 0% in assay [1]; -4.76% in assay [2]; 1.44% in assay [3]; -18.6% in assay [4]; 2.33% in assay [5].
The corresponding values for `Cc1ccc(NC(=O)N2CCCC(c3nnc(CN(C)C)n3C)C2)cc1C` (stereo unspecified) are -3.38%, -6.33%, -1.52%, -4.58% and -0.49%.
The corresponding values for `COc1ccc(OC)c([C@@H]2C[C@H](NC(C)=O)C[C@H](Cc3ccccc3)O2)c1` are -0.18%, 3.99%, 2.19%, -1.59% and 2.91%.
For the compound `C=C(C(=O)O)[C@@H]1CC[C@@]2(C)CCC[C@@](C)(O)[C@@H]2C1`, the activity change, negative = inhibition is 4.49% in assay [1]; 4.81% in assay [2]; 10.6% in assay [3]; -7.78% in assay [4]; -0.138% in assay [5].
The corresponding values for `CCn1ccnc1CN(C)C(=O)c1ccc2oc(-c3ccc(C(F)(F)F)cc3)nc2c1` are -4.21%, -0.848%, -1.68%, -5.57% and -1.94%.
The corresponding values for `Cc1ccc(CN2C(=O)CSc3c(c4ccccc4n3C)C2C(=O)NCc2ccccc2)cc1` (stereo unspecified) are 7.06%, 0%, 2.59%, 3.15% and 2.95%.
As to `C=C1C(=O)OC2CC(C)=C(C(C)CCCO)C(O)C12` (stereo unspecified), the activity change, negative = inhibition in assay [1] was -3.94%; in assay [2] it was -4.4%; in assay [3], 4.38%; in assay [4], -14.8%; in assay [5], -6.78%.
Consider `O=S(=O)(NCCn1c(CCc2ccccc2)nc2ccccc21)c1ccc(C2CCCCC2)cc1`, for which the activity change, negative = inhibition is -2.41% in assay [1]; -1.37% in assay [2]; -3.39% in assay [3]; -7.57% in assay [4]; -3.73% in assay [5].
For the compound `CS(=O)(=O)c1ccccc1N1CCN(c2nc3c(c(=O)[nH]2)CSCC3)CC1`, the activity change, negative = inhibition in assay [1] is -12.2%; in assay [2], 7.66%; in assay [3], -20.3%; in assay [4], -16.6%; in assay [5], -2.41%.
Regarding `COC[C@@H](c1ccc(C(F)(F)F)cc1)N1CCN(C2(C)CCN(C(=O)c3c(C)ncnc3C)CC2)C[C@@H]1C`, the activity change, negative = inhibition is 2.75% in assay [2], -16.8% in assay [4] and 0.585% in assay [5].
Consider `CC(C)N(C(=O)c1ccccc1-c1cc(NC2CC2)nc(N)n1)C(C)C`, for which the activity change, negative = inhibition in assay [1] is -8.26%; in assay [2], -8.93%; in assay [3], -6.93%; in assay [4], -10.4%; in assay [5], -6.84%.
For `Cc1ccc(C)c(N2CCN(C(=O)c3ccc(Nc4nc5ccccc5n5nnnc45)cc3)CC2)c1` the same measures were -8.18%, 0.407%, 6.5%, 7.73% and -1.11%.
As for `O=C(O)CNC(=O)C(CS)Cc1ccccc1` (stereo unspecified), the activity change, negative = inhibition in assay [1] is -70.7%; in assay [2], 14.5%; in assay [3], 8.79%; in assay [4] it was 0.256%; in assay [5], 6.6%.
The corresponding values for `CSCCC(NS(=O)(=O)c1ccc2c(c1)oc(=O)n2C)C(=O)N1CCN(c2ccc(C)cc2)C(C)C1` (stereo unspecified) are -4.32%, 0.374%, -3.74%, -7.13% and -5.43%.
The corresponding values for `Cn1ncc2c(N3CCN(S(N)(=O)=O)CC3)nc(C3CCCC3)nc21` are -34.4%, -27.5%, -43.9%, -70.9% and -26.3%.
